# The supplement of paper PMC8728848
# Some of the results follow.
# Legend:
# Test in all cases: glycan array binding signal (z-score within array); higher = stronger binding
# Conditions in all cases: glycan notation: IUPAC condensed, linker removed
# [1] = target: Fuc(a1-2)Gal
# Summary of the method: (§1)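 Glycan array data came from 3228 arrays in the Consortium for Functional Glycomics database, and only arrays with an available protein sequence were kept. Glycan names were put into IUPAC-condensed notation, and columns mapping to the same glycan were averaged. The binding signal is a within-array Z-score, averaged across arrays of one protein sequence run at different concentrations or buffers and across linkers. A negative Z-score can be read as non-binding.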
# [2] = target: Fuc(a1-2)Gal(b1-3)GalNAc
# Summary of the method: as §1
# [3] = target: Fuc(a1-2)Gal(b1-3)GalNAc(a1-3)[Fuc(a1-2)]Gal(b1-4)Glc
# Summary of the method: as §1
# [4] = target: Fuc(a1-2)Gal(b1-3)GalNAc(a1-3)[Fuc(a1-2)]Gal(b1-4)GlcNAc
# Summary of the method: as §1
# [5] = target: Fuc(a1-2)Gal(b1-3)GalNAc(b1-3)Gal
# Summary of the method: as §1
# [6] = target: Fuc(a1-2)Gal(b1-3)GalNAc(b1-3)Gal(a1-4)Gal(b1-4)Glc
# Summary of the method: as §1
# [7] = target: Fuc(a1-2)Gal(b1-3)GalNAc(b1-4)[Neu5Ac(a2-3)]Gal(b1-4)Glc
# Summary of the method: as §1
# [8] = target: Fuc(a1-2)Gal(b1-3)GlcNAc
# Summary of the method: as §1
# [9] = target: Fuc(a1-2)Gal(b1-3)GlcNAc(b1-2)Man(a1-3)[Fuc(a1-2)Gal(b1-3)GlcNAc(b1-2)Man(a1-6)]Man(b1-4)GlcNAc(b1-4)GlcNAc
# Summary of the method: as §1
# [10] = target: Fuc(a1-2)Gal(b1-3)GlcNAc(b1-2)Man(a1-3)[Fuc(a1-2)Gal(b1-3)GlcNAc(b1-2)Man(a1-6)]Man(b1-4)GlcNAc(b1-4)[Fuc(a1-6)]GlcNAc
# Summary of the method: as §1
# [11] = target: Fuc(a1-2)Gal(b1-3)GlcNAc(b1-3)Gal(b1-4)Glc
# Summary of the method: as §1
# [12] = target: Fuc(a1-2)Gal(b1-3)GlcNAc(b1-3)GalNAc
# Summary of the method: as §1
# [13] = target: Fuc(a1-2)Gal(b1-3)GlcNAc(b1-3)[Fuc(a1-2)Gal(b1-3)GlcNAc(b1-6)]GalNAc
# Summary of the method: as §1
# [14] = target: Fuc(a1-2)Gal(b1-3)GlcNAc(b1-3)[Gal(b1-4)GlcNAc(b1-6)]Gal(b1-4)Glc
# Summary of the method: as §1
# [15] = target: Fuc(a1-2)Gal(b1-3)GlcNAc(b1-3)[Neu5Ac(a2-6)Gal(b1-4)GlcNAc(b1-6)]Gal(b1-4)Glc
# Summary of the method: as §1
# [16] = target: Fuc(a1-2)Gal(b1-3)GlcNAc6S
# Summary of the method: as §1
# [17] = target: Fuc(a1-2)Gal(b1-3)[Fuc(a1-4)]GlcNAc
# Summary of the method: as §1
# [18] = target: Fuc(a1-2)Gal(b1-3)[Fuc(a1-4)]GlcNAc(b1-2)Man(a1-3)[Fuc(a1-2)Gal(b1-3)[Fuc(a1-4)]GlcNAc(b1-2)Man(a1-3)]Man(b1-4)GlcNAc(b1-4)GlcNAc
# Summary of the method: as §1
# [19] = target: Fuc(a1-2)Gal(b1-3)[Fuc(a1-4)]GlcNAc(b1-2)Man(a1-3)[Fuc(a1-2)Gal(b1-3)[Fuc(a1-4)]GlcNAc(b1-2)Man(a1-6)]Man(b1-4)GlcNAc(b1-4)[Fuc(a1-6)]GlcNAc(b1-4)[Fuc(a1-6)]GlcNAc
# Summary of the method: as §1
# [20] = target: Fuc(a1-2)Gal(b1-3)[Fuc(a1-4)]GlcNAc(b1-3)[Fuc(a1-3)[Gal(b1-4)]GlcNAc(b1-6)]Gal(b1-4)Glc
# Summary of the method: as §1
# [21] = target: Fuc(a1-2)Gal(b1-3)[Fuc(a1-4)]GlcNAc(b1-3)[Gal(b1-4)GlcNAc(b1-6)]Gal(b1-4)Glc
# Summary of the method: as §1
# [22] = target: Fuc(a1-2)Gal(b1-4)Glc
# Summary of the method: as §1
# [23] = target: Fuc(a1-2)Gal(b1-4)Glc6S
# Summary of the method: as §1
# [24] = target: Fuc(a1-2)Gal(b1-4)GlcNAc
# Summary of the method: as §1
# [25] = target: Fuc(a1-2)Gal(b1-4)GlcNAc(b1-2)Man
# Summary of the method: as §1
# [26] = target: Fuc(a1-2)Gal(b1-4)GlcNAc(b1-2)Man(a1-3)[Fuc(a1-2)Gal(b1-4)GlcNAc(b1-2)Man(a1-6)]Man(b1-4)GlcNAc(b1-4)GlcNAc
# Summary of the method: as §1
# [27] = target: Fuc(a1-2)Gal(b1-4)GlcNAc(b1-2)Man(a1-3)[Fuc(a1-2)Gal(b1-4)GlcNAc(b1-2)Man(a1-6)]Man(b1-4)GlcNAc(b1-4)[Fuc(a1-6)]GlcNAc
# Summary of the method: as §1
# [28] = target: Fuc(a1-2)Gal(b1-4)GlcNAc(b1-2)[Fuc(a1-2)Gal(b1-4)GlcNAc(b1-4)]Man(a1-3)[Fuc(a1-2)Gal(b1-4)GlcNAc(b1-2)Man(a1-6)]Man(b1-4)GlcNAc(b1-4)GlcNAc
# Summary of the method: as §1
# [29] = target: Fuc(a1-2)Gal(b1-4)GlcNAc(b1-3)Gal(b1-4)GlcNAc
# Summary of the method: as §1
# [30] = target: Fuc(a1-2)Gal(b1-4)GlcNAc(b1-3)Gal(b1-4)GlcNAc(b1-2)Man(a1-3)[Fuc(a1-2)Gal(b1-4)GlcNAc(b1-3)Gal(b1-4)GlcNAc(b1-2)Man(a1-6)]Man(b1-4)GlcNAc(b1-4)GlcNAc
# Summary of the method: as §1
# [31] = target: Fuc(a1-2)Gal(b1-4)GlcNAc(b1-3)Gal(b1-4)GlcNAc(b1-3)Gal(b1-4)GlcNAc
# Summary of the method: as §1
# [32] = target: Fuc(a1-2)Gal(b1-4)GlcNAc(b1-3)GalNAc
# Summary of the method: as §1
# [33] = target: Fuc(a1-2)Gal(b1-4)GlcNAc(b1-3)[Fuc(a1-2)Gal(b1-4)GlcNAc(b1-6)]GalNAc
# Summary of the method: as §1
# [34] = target: Fuc(a1-2)Gal(b1-4)GlcNAc(b1-3)[Fuc(a1-3)[Gal(b1-4)]GlcNAc(b1-6)]Gal(b1-4)Glc
# Summary of the method: as §1
# [35] = target: Fuc(a1-2)Gal(b1-4)GlcNAc(b1-6)GalNAc
# Summary of the method: as §1
# [36] = target: Fuc(a1-2)Gal(b1-4)GlcNAc6S
# Summary of the method: as §1
# [37] = target: Fuc(a1-2)Gal(b1-4)[Fuc(a1-3)]GlcNAc
# Summary of the method: as §1
# [38] = target: Fuc(a1-2)Gal(b1-4)[Fuc(a1-3)]GlcNAc(b1-2)Man(a1-3)[Fuc(a1-2)Gal(b1-4)[Fuc(a1-3)]GlcNAc(b1-2)Man(a1-6)]Man(b1-4)GlcNAc(b1-4)[Fuc(a1-6)]GlcNAc
# Summary of the method: as §1
# [39] = target: Fuc(a1-2)Gal(b1-4)[Fuc(a1-3)]GlcNAc(b1-2)[Fuc(a1-2)Gal(b1-4)[Fuc(a1-3)]GlcNAc(b1-4)]Man(a1-3)[Fuc(a1-2)Gal(b1-4)[Fuc(a1-3)]GlcNAc(b1-2)Man(a1-6)]Man(b1-4)GlcNAc(b1-4)GlcNAc
# Summary of the method: as §1
# [40] = target: Fuc(a1-2)Gal(b1-4)[Fuc(a1-3)]GlcNAc(b1-3)Gal(b1-4)[Fuc(a1-3)]GlcNAc
# Summary of the method: as §1
# [41] = target: Fuc(a1-2)Gal(b1-4)[Fuc(a1-3)]GlcNAc(b1-3)Gal(b1-4)[Fuc(a1-3)]GlcNAc(b1-3)Gal(b1-4)[Fuc(a1-3)]GlcNAc
# Summary of the method: as §1
# [42] = target: Fuc(a1-2)Gal(b1-4)[Fuc(a1-3)]GlcNAc(b1-3)GalNAc
# Summary of the method: as §1
# [43] = target: Fuc(a1-2)Gal(b1-4)[Fuc(a1-3)]GlcNAc(b1-3)[Neu5Ac(a2-6)Gal(b1-4)GlcNAc(b1-6)]Gal(b1-4)Glc
# Summary of the method: as §1
# [44] = target: Fuc(a1-2)Gal3S(b1-4)GlcNAc
# Summary of the method: as §1
# [45] = target: Fuc(a1-2)Gal6S(b1-3)GlcNAc
# Summary of the method: as §1
binder,measurement,setting,value
SBD-G4S3-SBD (protein) MASIPSSASVQLDSYNYDGSTFSGKIYVKNIAYSKKVTVVYADGSDNWNNNGNIIAASFSGPISGSNYEYWTFSASVKGIKEFYIKYEVSGKTYYDNNNSANYQVSTGGGGSGGGGSGGGGSEFASIPSSASVQLDSYNYDGSTFSGKIYVKNIAYSKKVTVVYADGSDNWNNNGNIIAASFSGPISGSNYEYWTFSASVKGIKEFYIKYEVSGKTYYDNNNSANYQVST,glycan array binding signal (z-score),[1],-0.343
same,glycan array binding signal (z-score),[2],-0.42
same,glycan array binding signal (z-score),[3],-0.338
same,glycan array binding signal (z-score),[4],-0.396
same,glycan array binding signal (z-score),[5],0.428
same,glycan array binding signal (z-score),[6],-0.316
same,glycan array binding signal (z-score),[7],-0.402
same,glycan array binding signal (z-score),[8],-0.343
same,glycan array binding signal (z-score),[9],2.65
same,glycan array binding signal (z-score),[10],-0.316
same,glycan array binding signal (z-score),[11],-0.249
same,glycan array binding signal (z-score),[12],-0.4
same,glycan array binding signal (z-score),[13],1.91
same,glycan array binding signal (z-score),[14],-0.417
same,glycan array binding signal (z-score),[15],-0.352
same,glycan array binding signal (z-score),[16],-0.372
same,glycan array binding signal (z-score),[17],-0.402
same,glycan array binding signal (z-score),[18],1.36
same,glycan array binding signal (z-score),[19],-0.299
same,glycan array binding signal (z-score),[20],-0.29
same,glycan array binding signal (z-score),[21],-0.283
same,glycan array binding signal (z-score),[22],-0.372
same,glycan array binding signal (z-score),[23],-0.342
same,glycan array binding signal (z-score),[24],-0.421
same,glycan array binding signal (z-score),[25],-0.306
same,glycan array binding signal (z-score),[26],2.42
same,glycan array binding signal (z-score),[27],-0.276
same,glycan array binding signal (z-score),[28],0.803
same,glycan array binding signal (z-score),[29],-0.435
same,glycan array binding signal (z-score),[30],-0.362
same,glycan array binding signal (z-score),[31],-0.414
same,glycan array binding signal (z-score),[32],-0.363
same,glycan array binding signal (z-score),[33],-0.317
same,glycan array binding signal (z-score),[34],-0.371
same,glycan array binding signal (z-score),[35],0.607
same,glycan array binding signal (z-score),[36],-0.349
same,glycan array binding signal (z-score),[37],-0.383
same,glycan array binding signal (z-score),[38],0.018
same,glycan array binding signal (z-score),[39],0.699
same,glycan array binding signal (z-score),[40],-0.363
same,glycan array binding signal (z-score),[41],-0.314
same,glycan array binding signal (z-score),[42],0.867
same,glycan array binding signal (z-score),[43],-0.41
same,glycan array binding signal (z-score),[44],-0.4
same,glycan array binding signal (z-score),[45],-0.408
